In EPA's CvTdb concentration-time database:
Further values from the same series stand in other lists.

Key:
[1] = tested on: Rat; assay: concentration in plasma after dosing; conditions: 0.25 h; dosed: 2-Methyltetrahydrofuran; 10 mg/kg; oral; Female; F344
[2] = tested on: Rat; assay: concentration in plasma after dosing; conditions: 20 min; dosed: 2-Methyltetrahydrofuran; 400 mg/kg; oral; Male; F344
[3] = tested on: Rat; assay: concentration in plasma after dosing; conditions: 1.5 h; dosed: 2-Methyltetrahydrofuran; 30 mg/kg; oral; Female; F344
[4] = tested on: Rat; assay: concentration in plasma after dosing; conditions: 10 min; dosed: 2-Methyltetrahydrofuran; 10 mg/kg; oral; Female; F344
[5] = tested on: Rat; assay: concentration in brain after dosing; conditions: 3 h; dosed: 2-Methyltetrahydrofuran; 10 mg/kg; iv; Male; F344
[6] = tested on: Rat; assay: concentration in brain after dosing; conditions: 1.5 h; dosed: 2-Methyltetrahydrofuran; 10 mg/kg; oral; Female; F344
[7] = tested on: Rat; assay: concentration in plasma after dosing; conditions: 1.5 h; dosed: 2-Methyltetrahydrofuran; 30 mg/kg; oral; Female; F344; remark: listed apart in the source
[8] = tested on: Rat; assay: concentration in plasma after dosing; conditions: 20 min; dosed: 2-Methyltetrahydrofuran; 400 mg/kg; oral; Female; F344
[9] = tested on: Rat; assay: concentration in plasma after dosing; conditions: 4 min; dosed: 2-Methyltetrahydrofuran; 10 mg/kg; oral; Female; F344
[10] = tested on: Rat; assay: concentration in brain after dosing; conditions: 4 min; dosed: 2-Methyltetrahydrofuran; 10 mg/kg; oral; Female; F344
[11] = tested on: Rat; assay: concentration in brain after dosing; conditions: 10 min; dosed: 2-Methyltetrahydrofuran; 30 mg/kg; oral; Male; F344
[12] = tested on: Rat; assay: concentration in brain after dosing; conditions: 1.5 h; dosed: 2-Methyltetrahydrofuran; 400 mg/kg; oral; Female; Harlan Sprague Dawley
[13] = tested on: Rat; assay: concentration in plasma after dosing; conditions: 1.5 h; dosed: 2-Methyltetrahydrofuran; 100 mg/kg; oral; Female; Harlan Sprague Dawley
[14] = tested on: Rat; assay: concentration in plasma after dosing; conditions: 1.5 h; dosed: 2-Methyltetrahydrofuran; 10 mg/kg; oral; Female; F344
[15] = tested on: Rat; assay: concentration in brain after dosing; conditions: 0.5 h; dosed: 2-Methyltetrahydrofuran; 10 mg/kg; oral; Female; F344
[16] = tested on: Rat; assay: concentration in brain after dosing; conditions: 2 min; dosed: 2-Methyltetrahydrofuran; 30 mg/kg; oral; Female; F344
[17] = tested on: Rat; assay: concentration in plasma after dosing; conditions: 5 min; dosed: 2-Methyltetrahydrofuran; 400 mg/kg; oral; Male; F344
[18] = tested on: Rat; assay: concentration in plasma after dosing; conditions: 4 h; dosed: 2-Methyltetrahydrofuran; 400 mg/kg; oral; Female; F344
[19] = tested on: Rat; assay: concentration in brain after dosing; conditions: 10 min; dosed: 2-Methyltetrahydrofuran; 10 mg/kg; iv; Male; F344
[20] = tested on: Rat; assay: concentration in plasma after dosing; conditions: 6 h; dosed: 2-Methyltetrahydrofuran; 100 mg/kg; oral; Female; Harlan Sprague Dawley
[21] = tested on: Rat; assay: concentration in plasma after dosing; conditions: 4 min; dosed: 2-Methyltetrahydrofuran; 30 mg/kg; oral; Male; F344
[22] = tested on: Rat; assay: concentration in plasma after dosing; conditions: 20 min; dosed: Bromochloroacetic acid; 10 mg/kg; iv; Male; F344
[23] = tested on: Rat; assay: concentration in plasma after dosing; conditions: 2 min; dosed: Bromochloroacetic acid; 10 mg/kg; iv; Male; F344
[24] = tested on: Rat; assay: concentration in plasma after dosing; conditions: dosed: Bromochloroacetic acid, 100 mg/kg, oral, Male, F344
[25] = tested on: Rat; assay: concentration in plasma after dosing; conditions: 9 h; dosed: Fluorotelomer alcohol 8+2; 160 mg/kg; oral; Female; Harlan Sprague Dawley
[26] = tested on: Rat; assay: concentration in plasma after dosing; conditions: dosed: Fluorotelomer alcohol 8+2, 80 mg/kg, oral, Female, Harlan Sprague Dawley
[27] = tested on: Rat; assay: concentration in plasma after dosing; conditions: dosed: Formamide, 36 mg/kg, oral, Male, Harlan Sprague Dawley
[28] = tested on: Rat; assay: concentration in plasma after dosing; conditions: dosed: Formamide, 600 mg/kg, oral, Female, Harlan Sprague Dawley
[29] = tested on: Rat; assay: concentration in plasma after dosing; conditions: dosed: Formamide, 300 mg/kg, oral, Female, Harlan Sprague Dawley
[30] = tested on: Rat; assay: concentration in plasma after dosing; conditions: dosed: Formamide, 600 mg/kg, oral, Female, Harlan Sprague Dawley; remark: listed apart in the source
[31] = tested on: Rat; assay: concentration in plasma after dosing; conditions: dosed: Formamide, 36 mg/kg, oral, Female, Harlan Sprague Dawley
[32] = tested on: Rat; assay: concentration in plasma after dosing; conditions: dosed: Formamide, 600 mg/kg, oral, Male, Harlan Sprague Dawley
[33] = tested on: Rat; assay: concentration in plasma after dosing; conditions: dosed: Formamide, 600 mg/kg, oral, Male, Harlan Sprague Dawley; remark: listed apart in the source
[34] = tested on: Rat; assay: concentration in plasma after dosing; conditions: 5 h; dosed: Pyridine; 200 mg/kg; oral; Female; F344
[35] = tested on: Rat; assay: concentration in plasma after dosing; conditions: 1 h; dosed: Pyridine; 50 mg/kg; oral; Male; Harlan Sprague Dawley
[36] = tested on: Rat; assay: concentration in plasma after dosing; conditions: dosed: Pyridine, 100 mg/kg, oral, Female, F344
[37] = tested on: Rat; assay: concentration in plasma after dosing; conditions: dosed: Pyridine, 5 mg/kg, oral, Female, F344
[38] = tested on: Rat; assay: concentration in plasma after dosing; conditions: 4 h; dosed: Pyridine; 10 mg/kg; oral; Male; Harlan Sprague Dawley

CC1CCCO1 (centres undefined) [2-Methyltetrahydrofuran]
Conditions | concentration in brain [µg/g] | concentration in plasma [µg/mL]
[1] | – | 3.41
[2] | – | 162
[3] | – | 7.1
[4] | – | 4.48
[5] | 0.0682 | –
[6] | 0.159 | –
[7] | – | 3.58
[8] | – | 184
[9] | – | 2.75
[10] | 3.43 | –
[11] | 13.5 | –
[12] | 105 | –
[13] | – | 39.8
[14] | – | 0.208
[15] | 2.67 | –
[16] | 6.51 | –
[17] | – | 169
[18] | – | 130
[19] | 5.61 | –
[20] | – | 2.11
[21] | – | 6.38

O=C(O)C(Cl)Br (centres undefined) [Bromochloroacetic acid]
Conditions | concentration in plasma [µg/mL]
[22] | 1.5
[23] | 29

[24]
Conditions | concentration in plasma [µg/mL]
0.25 h | 14.2
6 h | 2.81

OCCC(F)(F)C(F)(F)C(F)(F)C(F)(F)C(F)(F)C(F)(F)C(F)(F)C(F)(F)F [Fluorotelomer alcohol 8+2]
Conditions | concentration in plasma [ng/mL]
[25] | 551

[26]
Conditions | concentration in plasma [ng/mL]
0.75 h | 690
48 h | 1.87

NC=O [Formamide]
Conditions | concentration in plasma [µg/mL]
[27], 8 h | 40.8
[27], 12 h | 30.6
[28], 1.5 h | 746
[28], 30 h | 216
[29], 10 min | 3.7
[29], 20 h | 4
[30], 0.5 h | 693
[30], 48 h | 88.3
[31], 1 h | 48.7
[31], 72 h | 1.6
[32], 8 h | 688
[32], 12 h | 651
[33], 1.5 h | 692
[33], 30 h | 332

c1ccncc1 [Pyridine]
Conditions | concentration in plasma [µg/mL]
[34] | 83.4
[35] | 26.8
[38] | 0.234

concentration in plasma [µg/mL]
Conditions | 2 h | 4 h | 5 min | 14 h
[36] | 76.6 | – | – | 58.9
[37] | – | 2.74 | 2.2 | –
